Measurements published in PubChem BioAssay AID488969 (Vanderbilt High Throughput Screening Facility, 2010).
In all, about 110,000 compounds were measured (“z-score”: median about -0.1, highest 2% from about 2 on). The list shows a part of the results.

The compounds below were run against Metabotropic glutamate receptor 8 (Rattus norvegicus) (UniProt P70579) (assay: rat mGluR8 modulators via GIRK flux, primary screen, cell-based, thallium flux, HTS (AID 488969)). Details: HEK293 rat mGluR8, GIRK (G protein-gated inwardly rectifying potassium channel) thallium flux, FluoZin2; at 10 µM; stronger effect = higher value; submaximal glutamate (EC20) added with thallium.
Sequence of UniProt P70579 (P70579 whole entry, looked up): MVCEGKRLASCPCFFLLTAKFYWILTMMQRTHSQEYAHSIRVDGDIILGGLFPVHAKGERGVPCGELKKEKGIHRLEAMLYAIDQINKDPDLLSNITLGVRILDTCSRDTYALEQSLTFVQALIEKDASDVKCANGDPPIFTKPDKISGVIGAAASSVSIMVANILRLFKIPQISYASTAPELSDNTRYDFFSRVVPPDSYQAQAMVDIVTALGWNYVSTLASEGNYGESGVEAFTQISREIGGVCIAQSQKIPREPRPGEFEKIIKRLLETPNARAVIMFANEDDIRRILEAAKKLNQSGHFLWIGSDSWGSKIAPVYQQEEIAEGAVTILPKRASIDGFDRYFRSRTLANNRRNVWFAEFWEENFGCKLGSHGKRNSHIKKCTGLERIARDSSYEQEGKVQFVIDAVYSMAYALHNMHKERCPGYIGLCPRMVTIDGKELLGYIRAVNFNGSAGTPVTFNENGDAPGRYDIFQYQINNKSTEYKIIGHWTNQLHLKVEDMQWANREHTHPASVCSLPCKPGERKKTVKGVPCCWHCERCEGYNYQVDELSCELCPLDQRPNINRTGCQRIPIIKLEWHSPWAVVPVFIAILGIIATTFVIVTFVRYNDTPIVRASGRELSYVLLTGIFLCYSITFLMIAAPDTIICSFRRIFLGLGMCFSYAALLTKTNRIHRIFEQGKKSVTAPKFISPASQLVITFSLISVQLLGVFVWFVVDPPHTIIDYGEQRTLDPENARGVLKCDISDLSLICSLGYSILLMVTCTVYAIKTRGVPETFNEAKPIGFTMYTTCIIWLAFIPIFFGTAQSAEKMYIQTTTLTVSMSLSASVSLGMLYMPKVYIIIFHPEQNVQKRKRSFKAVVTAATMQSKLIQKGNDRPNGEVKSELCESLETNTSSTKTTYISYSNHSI
For CCOC(=O)C(NC(=O)c1cccc(Cl)c1)(Nc1sc2c(c1C(N)=O)CCC2)C(F)(F)F (stereo not drawn), the z-score was -0.276.
COc1ccccc1NC(=S)N(Cc1ccco1)Cc1cc2ccc(C)c(C)c2[nH]c1=O was tested, and the z-score was -0.13.
For CCOc1ccc(NC(=O)CN2C(=O)C3CCCN3C2=O)cc1 (stereo not drawn), the z-score was 0.237.
With CCCNC(=O)Cn1cnc2sc(C(=O)Nc3ccc4c(c3)OCO4)c(C)c2c1=O the z-score was -0.367.
CCOC(=O)C1CCCN(c2ccc(NC(=O)c3snc4c(=O)[nH]c(C)nc34)cc2)C1 (stereo not drawn) was tested, and the z-score was 0.0878.
Work on O=C(CC12CC3CC(CC(C3)C1)C2)N1CCCOC1 yielded a z-score of -0.19.
COc1ccc(C(=O)CSc2nnc(Cn3nnc4ccccc43)n2C)cc1 gave a z-score of -0.0199.
O=S(=O)(NCc1cccnc1)c1ccc(Cl)nc1 showed a z-score of 1.05.
O=C(CCn1c(=O)c2ccccc2n(Cc2ccccc2)c1=O)NCc1ccc2c(c1)OCO2 showed a z-score of -0.0589.
Compound Cc1cc(C(=O)N/N=C/c2cc([N+](=O)[O-])ccc2O)c2ccccc2n1 has a z-score of -0.102.
O=C(CSc1nc2cc(Cl)ccc2c(=O)n1Cc1ccco1)Nc1ccc(S(=O)(=O)N2CCOCC2)cc1 showed a z-score of 2.05.
In the case of N#CCCN(Cc1ccccc1)C(=S)Nc1ccccc1, the z-score is reported as -0.262.
Compound CCOC(=O)C(C)n1nc(C)c2sc3ccccc3c2c1=O (stereo not drawn) has a z-score of -0.322.
In the case of O=C(Nc1ccc(Cc2ccncc2)cc1)c1cccc([N+](=O)[O-])c1, the z-score is reported as -0.303.
In the case of N#Cc1ccccc1Sc1ccccc1C(=O)OCC(=O)NC12CC3CC(CC(C3)C1)C2, the z-score is reported as -0.129.
COc1ccc(NC(=S)N2CCN(c3ccccn3)CC2)cc1OC showed a z-score of 1.41.
For OC(CNCC1CCCO1)COc1ccc(OCC(O)CNCC2CCCO2)cc1 (stereo not drawn), the z-score was -0.457.
With CC(=O)Nc1ccc(OC(F)(F)C(F)F)c(NC(C)=O)c1 the z-score was 0.435.
In the case of COc1ccc(C(=S)N2CCOCC2)cc1OC(=O)c1cc([N+](=O)[O-])c(C)c([N+](=O)[O-])c1, the z-score is reported as 0.476.
CC1CCCCN1Cc1ccc(-c2nnn(CC(=O)NC3CCCCC3)n2)cc1 (stereo not drawn) was tested, and the z-score was 0.57.
CCOC(=O)c1cccc(NC(=O)CSc2nnc(-c3ccoc3C)n2CCOC)c1 showed a z-score of -2.88.
O=C(NC(=S)NNC(=O)c1ccccc1[N+](=O)[O-])c1ccccc1 gave a z-score of -0.00864.
Work on Cc1cc2ccccn2c1C(=S)NC(=O)c1ccccc1 yielded a z-score of -0.81.
CN1C(=O)c2ccccc2C(C(=O)NCc2ccco2)C1c1c[nH]c2ccccc12 (stereo not drawn) gave a z-score of -1.
For CCc1c(C)nc2ncnn2c1N1CCC(C(=O)NCc2ccc3c(c2)OCO3)CC1, the z-score was -0.715.
For COc1ccccc1/C=C(\NC(=O)c1ccc(OC)c(OC)c1)C(=O)Nc1ccc([N+](=O)[O-])cc1, the z-score was 0.43.
For O=C(CSc1nnc(CNc2ccc(F)cc2)o1)N1CCN(C(=O)c2ccco2)CC1, the z-score was 0.487.
With Cc1cc(C)nc(SCC(=O)Nc2ccc(S(=O)(=O)NCCO)cc2)n1 the z-score was -0.145.
For COc1ccc(-n2c(-c3ccc(F)cc3)cnc2SCC(=O)NCc2ccco2)cc1, the z-score was -0.275.
For CCn1c(CNc2ccc(Cl)cc2)nnc1SCC(=O)NCc1ccccc1, the z-score was -0.546.
Work on CC1(C)CC(=O)C2=C(C1)OC(N)=C(C#N)C21C(=O)N2CCCc3cccc1c32 (stereo not drawn) yielded a z-score of -0.0681.
Work on COc1ccccc1NC(=O)c1cnc(Nc2ccccc2OC)c2ccccc12 yielded a z-score of -0.375.
In the case of CCC(C)NCCCCOc1ccc(Br)cc1 (stereo not drawn), the z-score is reported as 0.51.
For COc1ccc(OCC(=O)Nc2ccc(S(=O)(=O)Nc3cc(C)nc(C)n3)cc2)cc1, the z-score was 0.312.
CN(C)c1cc2c(c(N(C)C)c1)C(=O)c1ccccc1C2=O showed a z-score of 0.0524.
For CCc1nc(SCC(=O)NNC(=O)C(C)C)c2ccccc2n1, the z-score was -0.00759.
COc1ccc(OCC(=O)NNC(=O)c2nn(C)c(=O)c3ccccc23)cc1 showed a z-score of -0.547.
Work on O=C(c1ccco1)c1cc2c(ccc3ccccc32)oc1=O yielded a z-score of -0.33.
Work on CN=C(Nc1cc(Cl)ccc1Cl)SC1CC(=O)N(c2ccc(C(=O)OC)cc2)C1=O (stereo not drawn) yielded a z-score of -0.472.
For CN(C(=O)c1ccc(S(=O)(=O)NC2CCCC2)cc1)C1CCCCC1, the z-score was -0.345.
O=C(CSc1nnnn1-c1cccc2ccccc12)N1CCOCC1 gave a z-score of -0.416.
With COCCn1c(=O)[nH]c2cc(C(=O)NCCN3CCN(c4ccccc4F)CC3)ccc2c1=O the z-score was -0.59.
Cn1c(CN2CCCC2)nc2cc(NC(=O)COc3ccc(Cl)cc3)ccc21 gave a z-score of 0.175.
Cc1ccc(C(=O)n2nc(-c3cccnc3)nc2N)cc1 gave a z-score of 0.108.
For Cc1cc(NCCN2CCOCC2)n2ncc(-c3ccccc3)c2n1, the z-score was -0.397.
Work on Cc1sc2ncnc(SCC(=O)NCC(C)C)c2c1C yielded a z-score of -0.208.
For CCc1nnc(N/N=C/c2ccc(N3CCC(C)CC3)c([N+](=O)[O-])c2)n1N, the z-score was -0.0832.
CCn1cc(C(=O)NCCCN2CCC(C)CC2)c2cc(OC)c(OC)cc2c1=O gave a z-score of -0.227.
CN1C(=S)SC(N(O)C=C2C=CC(=O)C=C2)C1(C)C (stereo not drawn) showed a z-score of -0.214.
In the case of COc1ccc2c(c1)nc(SCC(C)O)n2C (stereo not drawn), the z-score is reported as -0.199.
Compound O=c1c(S(=O)(=O)c2ccc(Cl)cc2)cn(Cc2ccccc2F)c2ccc(F)cc12 has a z-score of -0.124.
Cc1cc(NC(=O)CSc2nc3ccccc3c(=O)n2C2CCCC2)no1 was tested, and the z-score was -0.447.
With CCc1ccc(-c2nc(CCl)cs2)cc1 the z-score was -0.153.
